Measurements published in the antibiotic and cytotoxicity screens of Wong et al. (2023).
The other results are listed elsewhere or left out.

The molecules below were run on HepG2 (assay: cytotoxicity call (relative viability < 0.9)). Conditions: 10 µM.
In the case of O=C(C1=C[C@H](c2ccc3c(c2)Cc2ccccc2-3)C[C@H](OCc2ccc(CO)cc2)O1)N1CCN(Cc2ccc3c(c2)OCO3)CC1, the cytotoxicity call was “inactive”. For O=C(N/N=C/[C@H](O)[C@@H](O)[C@H](O)CO)c1ccccn1, the cytotoxicity call was “inactive”. In the case of CN(C)CCCN1C(=O)[C@@]2(Cc3ccccc31)c1ccccc1C(=O)N(C1CCCCC1)[C@H]2c1ccc(CO)cc1, the cytotoxicity call was “inactive”. In the case of CNC[C@@H]1OCCCC[C@@H](C)Oc2ccc(NS(=O)(=O)c3cn(C)cn3)cc2C(=O)N([C@@H](C)CO)C[C@H]1C, the cytotoxicity call was “inactive”. COc1ccc(NC(=O)N(C)C[C@@H]2OCCCC[C@@H](C)Oc3ccc(NS(=O)(=O)c4ccc(C)cc4)cc3C(=O)N([C@@H](C)CO)C[C@@H]2C)cc1 was tested, and the cytotoxicity call was “inactive”. With CCCC(=O)Nc1ccc2c(c1)OC[C@H](C)N(Cc1ccc(-c3ccccn3)cc1)C[C@@H](C)[C@@H](OC)CN(C)C2=O the cytotoxicity call was “inactive”. In the case of COc1ccc(NC(=O)Nc2ccc3c(c2)C(=O)N([C@@H](C)CO)C[C@@H](C)[C@H](CN(C)Cc2ccc(Cl)c(Cl)c2)O3)cc1, the cytotoxicity call was “inactive”. With CC(=O)N(C)C[C@H]1Oc2ncc(C#C[C@@H](C)O)cc2C(=O)N([C@@H](C)CO)C[C@H]1C the cytotoxicity call was “inactive”. For C[C@H]1CCCCO[C@H](CN(C)Cc2ccccc2)[C@@H](C)CN([C@@H](C)CO)C(=O)c2cc(NC(=O)Nc3cccc4ccccc34)ccc2O1, the cytotoxicity call was “active”. In the case of CN(C)CC(=O)N1CC(=O)N2[C@@H](CO)[C@@H](c3ccc(C#Cc4cccnc4)cc3)[C@@H]2C1, the cytotoxicity call was “inactive”. c1ccc(-c2cc(-c3nc4ccccc4[nH]3)c3ccccc3n2)cc1 was tested, and the cytotoxicity call was “inactive”. COc1ccc(NC(=O)N(C)C[C@H]2Oc3ccc(NC(=O)C4CC4)cc3C(=O)N([C@H](C)CO)C[C@H]2C)cc1 was tested, and the cytotoxicity call was “inactive”. For C[C@H](CO)N1C[C@H](C)[C@H](CN(C)C(=O)Nc2cccc3ccccc23)OCCCC[C@H](C)Oc2ccc(NS(=O)(=O)c3ccc(F)cc3)cc2C1=O, the cytotoxicity call was “inactive”. For CCCNC(=O)N[C@@H]1C=C[C@H](CC(=O)N2CCN(C)CC2)O[C@@H]1CO, the cytotoxicity call was “inactive”. C[C@@H]1CN([C@H](C)CO)C(=O)Cc2cc(N(C)C)ccc2O[C@H]1CN(C)C(=O)Nc1ccc2c(c1)OCO2 was tested, and the cytotoxicity call was “inactive”. C[C@H]1CCCCO[C@@H](CN(C)Cc2ccc3c(c2)OCO3)[C@@H](C)CN([C@@H](C)CO)C(=O)c2cc(NC(=O)Nc3ccc(F)cc3)ccc2O1 was tested, and the cytotoxicity call was “inactive”.

The molecules below were run on S. aureus RN4220 (assay: growth inhibition call (relative growth <= 0.2)). Conditions: 50 µM.
In the case of C[C@H](CO)N1C[C@H](C)[C@@H](CN(C)S(=O)(=O)c2cn(C)cn2)Oc2ccc(NC(=O)C3CC3)cc2CC1=O, the growth inhibition call was “inactive”. With Cc1cc([N+](=O)[O-])nn1CC(=O)NC(C)C the growth inhibition call was “inactive”. With C[C@@H]1CN([C@@H](C)CO)C(=O)Cc2cc(NS(=O)(=O)c3cccs3)ccc2O[C@@H]1CN(C)Cc1ccc(-c2ccccc2)cc1 the growth inhibition call was “inactive”. For CN(C)CCCNC(=O)C[C@H]1CC[C@H]2[C@H](COc3ccc(NC(=O)c4cccc(F)c4)cc3C(=O)N2C)O1, the growth inhibition call was “inactive”. O=C(Cn1ccc([N+](=O)[O-])n1)n1cccn1 was tested, and the growth inhibition call was “inactive”. For COc1ccc(NC(=O)Nc2ccc3c(c2)C(=O)N([C@@H](C)CO)C[C@H](C)[C@H](CN(C)S(=O)(=O)c2ccc(C)cc2)OCCCC[C@H](C)O3)cc1, the growth inhibition call was “inactive”. With COC(=O)c1cn(CC(=O)O)nn1 the growth inhibition call was “inactive”. In the case of C[C@@H]1CN([C@@H](C)CO)C(=O)c2cc(NC(=O)c3ccncc3)ccc2O[C@@H]1CN(C)C(=O)Nc1ccc2c(c1)OCO2, the growth inhibition call was “inactive”. O=C(Nc1ccc([N+](=O)[O-])cc1Cl)c1cc(Cl)ccc1O was tested, and the growth inhibition call was “inactive”. For Cc1ccc(S(=O)(=O)N2C[C@H](O)COC[C@H]3O[C@H](CC(=O)NCc4ccc5c(c4)OCO5)CC[C@@H]32)cc1, the growth inhibition call was “inactive”. In the case of C[C@@H]1CN([C@@H](C)CO)C(=O)c2cc(NS(=O)(=O)c3cccs3)ccc2O[C@@H]1CN(C)Cc1ccc(-c2ccccc2)cc1, the growth inhibition call was “inactive”. For COc1ccc(NC(=O)N(C)C[C@@H]2OCCCC[C@H](C)Oc3ccc(NC(=O)c4ccccc4)cc3C(=O)N([C@H](C)CO)C[C@@H]2C)cc1, the growth inhibition call was “inactive”. In the case of Cc1ccc(S(=O)(=O)Nc2ccc3c(c2)C(=O)N([C@H](C)CO)C[C@@H](C)[C@@H](CN(C)C(=O)Cc2ccccc2)OCCCC[C@H](C)O3)cc1, the growth inhibition call was “inactive”. For C[C@@H]1CN([C@@H](C)CO)C(=O)c2cccc(NC(=O)c3ccc(-c4nccs4)cc3)c2O[C@H]1CN(C)C(=O)Nc1ccc(F)cc1, the growth inhibition call was “inactive”. In the case of COCC(=O)N[C@@H]1C=C[C@@H](CC(=O)N2CCCCC2)O[C@H]1CO, the growth inhibition call was “inactive”. In the case of Cc1noc(C)c1NC(=O)Nc1ccc2c(c1)C(=O)N([C@@H](C)CO)C[C@@H](C)[C@H](CN(C)Cc1ccncc1)OCCCC[C@@H](C)O2, the growth inhibition call was “inactive”. In the case of CC(=O)OCC1=C(C(=O)[O-])N2C(=O)C(NC(=O)CSc3ccncc3)C2SC1.[Na+] (stereo unspecified), the growth inhibition call was “active”. For CC(=O)OCC(=O)C1(O)C(OC(C)=O)CC2C3CCC4=CC(=O)C=CC4(C)C3(F)C(O)CC21C (stereo unspecified), the growth inhibition call was “inactive”. S=C1NCN(Cc2ccncc2)CN1 was tested, and the growth inhibition call was “inactive”. For Cc1noc(C)c1NC(=O)Nc1ccc2c(c1)C(=O)N([C@H](C)CO)C[C@H](C)[C@H](CN(C)Cc1ccccc1)OCCCC[C@H](C)O2, the growth inhibition call was “inactive”. With Cc1ccc(OC(=O)N(C)C[C@@H]2OCc3ccccc3-c3ccccc3C(=O)N([C@H](C)CO)C[C@H]2C)cc1 the growth inhibition call was “inactive”. C[C@H]1CN([C@@H](C)CO)S(=O)(=O)c2ccc(Br)cc2O[C@H]1CN(C)S(=O)(=O)c1ccccc1 was tested, and the growth inhibition call was “inactive”. For N#CC(c1ccc(Cl)cc1)c1c(Cl)cc(-n2ncc(=O)[nH]c2=O)cc1Cl (stereo unspecified), the growth inhibition call was “active”. In the case of COc1ccc2c(c1)[C@@]1(CC(=O)N(Cc3ccccc3)C1=O)C(=O)N2CCCn1c(=O)n(C)c2ccccc21, the growth inhibition call was “inactive”. For O=C(C1=C[C@H](c2ccc3c(c2)Cc2ccccc2-3)C[C@H](OCc2ccc(CO)cc2)O1)N1CCN(Cc2ccc3c(c2)OCO3)CC1, the growth inhibition call was “inactive”. For O=C(N/N=C/[C@H](O)[C@@H](O)[C@H](O)CO)c1ccccn1, the growth inhibition call was “inactive”. With CN(C)CCCN1C(=O)[C@@]2(Cc3ccccc31)c1ccccc1C(=O)N(C1CCCCC1)[C@H]2c1ccc(CO)cc1 the growth inhibition call was “inactive”. In the case of CNC[C@@H]1OCCCC[C@@H](C)Oc2ccc(NS(=O)(=O)c3cn(C)cn3)cc2C(=O)N([C@@H](C)CO)C[C@H]1C, the growth inhibition call was “inactive”. In the case of COc1ccc(NC(=O)N(C)C[C@@H]2OCCCC[C@@H](C)Oc3ccc(NS(=O)(=O)c4ccc(C)cc4)cc3C(=O)N([C@@H](C)CO)C[C@@H]2C)cc1, the growth inhibition call was “inactive”. For CCCC(=O)Nc1ccc2c(c1)OC[C@H](C)N(Cc1ccc(-c3ccccn3)cc1)C[C@@H](C)[C@@H](OC)CN(C)C2=O, the growth inhibition call was “inactive”. COc1ccc(NC(=O)Nc2ccc3c(c2)C(=O)N([C@@H](C)CO)C[C@@H](C)[C@H](CN(C)Cc2ccc(Cl)c(Cl)c2)O3)cc1 was tested, and the growth inhibition call was “inactive”. CC(=O)N(C)C[C@H]1Oc2ncc(C#C[C@@H](C)O)cc2C(=O)N([C@@H](C)CO)C[C@H]1C was tested, and the growth inhibition call was “inactive”. With C[C@H]1CCCCO[C@H](CN(C)Cc2ccccc2)[C@@H](C)CN([C@@H](C)CO)C(=O)c2cc(NC(=O)Nc3cccc4ccccc34)ccc2O1 the growth inhibition call was “inactive”. In the case of CN(C)CC(=O)N1CC(=O)N2[C@@H](CO)[C@@H](c3ccc(C#Cc4cccnc4)cc3)[C@@H]2C1, the growth inhibition call was “inactive”. For c1ccc(-c2cc(-c3nc4ccccc4[nH]3)c3ccccc3n2)cc1, the growth inhibition call was “inactive”. COc1ccc(NC(=O)N(C)C[C@H]2Oc3ccc(NC(=O)C4CC4)cc3C(=O)N([C@H](C)CO)C[C@H]2C)cc1 was tested, and the growth inhibition call was “inactive”. For C[C@H](CO)N1C[C@H](C)[C@H](CN(C)C(=O)Nc2cccc3ccccc23)OCCCC[C@H](C)Oc2ccc(NS(=O)(=O)c3ccc(F)cc3)cc2C1=O, the growth inhibition call was “inactive”. CCCNC(=O)N[C@@H]1C=C[C@H](CC(=O)N2CCN(C)CC2)O[C@@H]1CO was tested, and the growth inhibition call was “inactive”. C[C@@H]1CN([C@H](C)CO)C(=O)Cc2cc(N(C)C)ccc2O[C@H]1CN(C)C(=O)Nc1ccc2c(c1)OCO2 was tested, and the growth inhibition call was “inactive”. C[C@H]1CCCCO[C@@H](CN(C)Cc2ccc3c(c2)OCO3)[C@@H](C)CN([C@@H](C)CO)C(=O)c2cc(NC(=O)Nc3ccc(F)cc3)ccc2O1 was tested, and the growth inhibition call was “inactive”.
